Measurements from the RNAGym collection of RNA variant scans (doi:10.1101/gad.245936.114).
Variants at the floor of the assay are shown more often than the library holds them.

B1: tRNA (parent)
chain: CUCUCGGUAGCCAAGUUGGUUUAAGGCGCAAGACUUUAAUUUAUCACUACGAAAUCUUGAGAUCGGGCGUUCGACUCGCCCCCGGGAGAUUUUUUCCUCGAGCAA

Variants of: B1
Assay: nonsense suppression (GFP-seq) (ratio to wild type); higher = more function; SUP4oc tRNA, yeast GFP reporter sort-seq
Outline: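 To measure nonsense suppression, tRNA variants from a library carrying ~3% random mutations were integrated into the yeast genome alongside RFP and a GFP ochre reporter under galactose control. Growth took place in raffinose/galactose medium supplemented with 80 mg/L adenine, followed by sorting into GFP/RFP bins and Illumina sequencing of each bin (phred ≥30). For each variant with ≥100 reads and ≥30 cells, the bin median GFP/RFP values were weighted by its estimated cell share per bin and referenced to the unmutated parent tRNA.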

Nonsense suppression, ≤ 0.026:
C5A A74G
C5A C11A
C5A C11U
C5A C11U G18U G28U A54U G65A
C5A C12A G88A
C5A C12A U55G G86C
C5A C12U A14G A62G
C5A C12U C34A
C5A C12U G18U U70A C79U
C5A C27G A89U
C5A C27U C80G
C5A C29G
C5A C29G C80U
C5A C29U A89G
C5A C34G A89U
C5A C34G C72G
C5A C56A G67A G78U
C5A C56G G88U
C5A C64A G67A
C5A C64G
C5A C68G
C5A C72A U76G
C5A C79A
C5A C79A A89C
C5A G6A U16G
C5A G6U C11U G26U U63G
C5A G6U U20C G86C
C5A G7A
C5A G7A U20G
C5A G15A A33G
C5A G15A U21A U58A
C5A G15C G67C
C5A G18C
C5A G18U A24G
C5A G19U U20G
C5A G25A
C5A G25A G28U G59C C81G
C5A G25A G28U G59C C81U
C5A G26U A33U
C5A G26U C29G C34G C81A
C5A G26U U35G A54C G65A
C5A G59C G73U C80U
C5A G66C
C5A G67C
C5A U8A
C5A U8C A9U C80A
C5A U8G
C5A U16A A24G A33G C80A
C5A U16A C79G
C5A U16A C83A
C5A U16A G26C U71C C77A C81U
C5A U16C G28C G86A G88C
C5A U20A
C5A U20A C75G
C5A U20G A33G U55C U57G
C5A U21A C56A
C5A U21A U63C C81G
C5A U22C
C5A U22C G86A
C5A U35G U57A
C5A U55G U70G
C5A U57G G66A G84C
C5A U57G G67U
C5A U58C
C5A U58C G86U
C5A U63A G66C
C5A U76G
C5G
C5G A9C G32A G65C
C5G A9C U35G A54C C83A
C5G A9U
C5G A9U C11G A33C C77G G84A
C5G A13G G78U
C5G A13U G19U U35G A87G
C5G A13U U20A U21A A23U U63G
C5G A14U G26U A30G G73C
C5G A24C C64A
C5G A24G C56A
C5G A24U G67C
C5G A24U G85A
C5G A24U U57C G66U
C5G A30G C80U
C5G A30G U71C
